PubChem BioAssay AID602233 (National Center for Advancing Translational Sciences (NCATS), 2012)
The campaign covered roughly 380,000 compounds. About 170 (0.045%) were called active. Inconclusive means that the source gave no clear call. Such entries were picked first, then a sample of the others. Calls come from the whole dose curve; as a rule, active = well fitted inhibition curve with a large enough effect; inconclusive = small, poorly fitted or top-dose-only effect; inactive = no such curve, though single readings can be large or run the other way. Potencies of inconclusive entries are left out as doubtful fits.
Note: nearly all actives have a fitted effect of over 60% in size.
Potency is the fitted concentration of half-maximal effect; tags give direction and shape of the fitted curve.

The compounds below were run against Phosphoglycerate kinase, glycosomal (Trypanosoma brucei brucei) (UniProt P07378) (assay: qHTS Assay to Find Inhibitors of Phosphoglycerate Kinase). Details: PGK/GAPDH coupled, Kinase-Glo luminescence, 60 min; series mostly up to 57.5 µM.
Outline: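 Recombinant glycosomal PGK reaction used 1,3-bisphosphoglycerate generated in-well by GAPDH (100nM final) in 100mM TEA pH 7.6, 5mM MgCl2, 0.01% Tween-20. After 60 minutes at room temperature, ATP was read by Kinase-Glo Plus luminescence end-point.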
For `CC(/C=N/N1CCN(c2ccccc2)CC1)=C\c1ccco1`, the Potency was inconclusive [inhibitor, single point].
`CCc1ccc2c(c1)c1nnc(NN)nc1n2CC` was tested, and the Potency was “inactive”.
With `CCOC(=O)c1c(-c2ccccc2)[nH]c2ccc(O)cc12` the Potency was inconclusive [inhibitor, single point].
`O=C(/C=C/Nc1ccc(F)cc1F)c1cccs1` was tested, and the Potency was inconclusive [inhibitor, single point].
For `O=C(Cn1c(=O)n(Cc2ccco2)c(=O)c2c3c(sc21)CCCCC3)Nc1ccccc1`, the Potency was “inactive”.
`O=C(N/N=C/c1cn(Cc2ccccc2)c2ccccc12)c1cc(O)cc(O)c1` was tested, and the Potency was inconclusive [inhibitor, partial curve, poor fit].
In the case of `Cc1ccc(S(=O)(=O)N(C)C)cc1NC(=S)N1CCN(Cc2ccc3c(c2)OCO3)CC1`, the Potency is reported as inconclusive [inhibitor, partial curve, poor fit].
With `CCCCCCOC(=O)C[N+](C)(C)CCOC1CC2CCC1(C)C2(C)C` (stereo unspecified) the Potency was “inactive”.
For `Cc1ccc(S(=O)(=O)N2CCCCCC2)cc1C(=O)Nc1cccnc1`, the Potency was “inactive”.
With `CCSc1nnc(NC(=O)C2CC=CCC2C(=O)O)s1` (stereo unspecified) the Potency was inconclusive [inhibitor, single point].
With `Cc1nc(S/C(=C/c2ccc(-c3ccc(Cl)cc3)o2)C(=O)O)n[nH]1` the Potency was inconclusive [inhibitor, partial curve, poor fit].
In the case of `CC(C)(Oc1ccc(Cl)cc1)C(=O)NCc1ccc(S(N)(=O)=O)cc1`, the Potency is reported as inconclusive [inhibitor, partial curve, poor fit].
With `COc1cc(OC)cc(C(=O)Nc2nnc(NC(=S)Nc3ccccc3)s2)c1` the Potency was “inactive”.
`COc1c2c(c(C)c3c1C(=O)OC3)O[C@@]1(C)CC[C@@]3(O)C(C)(C)OC(=O)CC[C@]3(C)[C@H]1C2` was tested, and the Potency was “inactive”.
With `Cc1ccc2nc(-c3ccncc3)c(NC3CCCCC3)n2c1` the Potency was “inactive”.
For `Oc1nc(Nc2ccc(F)cc2)sc1/C=C1\C=Nc2ccccc21`, the Potency was “inactive”.
In the case of `CCc1ccc(NC(=O)CS(=O)CC(=O)Nc2ccc(-n3cnnn3)c(C)c2)cc1` (stereo unspecified), the Potency is reported as “inactive”.
`COc1cc(NS(=O)(=O)c2ccc(NC(=S)NC(=O)/C=C/c3ccco3)cc2)ncn1` was tested, and the Potency was active: 20 µM.
In the case of `c1ccc(C2=NNC(=NC3CC3)SC2)cc1`, the Potency is reported as inconclusive [inhibitor, partial curve, poor fit].
In the case of `O=C(O)Cc1cccc(=O)c(O)c1C(=O)O`, the Potency is reported as active: 12.6 µM.
In the case of `O=C(CCc1c[nH]c2ccccc12)NC(Cc1ccccc1)C(=O)O` (stereo unspecified), the Potency is reported as “inactive”.
`O=C(NCc1ccco1)c1cnc2n(c1=O)CCS2` was tested, and the Potency was “inactive”.
With `Cc1ccoc1C(=O)NCc1occc1C(=O)O` the Potency was inconclusive [inhibitor, single point].
In the case of `Oc1ccc(NC(=S)Nc2ccc(F)cc2)cc1`, the Potency is reported as inconclusive [inhibitor, single point].
With `CC(C)CC(NC(=O)c1ccccc1)C(=O)N/N=C/c1ccco1` (stereo unspecified) the Potency was inconclusive [inhibitor, partial curve].
For `Cc1cc(C)cc(N(C(=O)CCC(=O)Nc2cc(C)on2)C(C(=O)NC2CCCC2)c2ccco2)c1` (stereo unspecified), the Potency was “inactive”.
In the case of `O=C1NC(=S)S/C1=C\c1cc(Cl)cc(Cl)c1O`, the Potency is reported as inconclusive [inhibitor, partial curve, poor fit].
For `COc1ccc(C(=O)O/N=C(\N)c2ccccn2)cc1`, the Potency was active: 11.2 µM.
`COc1ccc(CCN2CC(C(=O)NCCc3ccc(C)cc3)CC2=O)cc1OC` (stereo unspecified) was tested, and the Potency was inconclusive [inhibitor, partial curve].
With `COc1cc(/C=C2\SC(=Nc3ccc(O)cc3)NC2=O)cc(OC)c1OC` the Potency was “inactive”.
For `Cc1ccc(NC(=O)CN(C)C(=O)c2cc(-c3ccco3)nc3ccccc23)cc1`, the Potency was inconclusive [inhibitor, single point].
For `O=C(COC(=O)c1ccc(NS(=O)(=O)c2cccs2)cc1)NCc1ccco1`, the Potency was inconclusive [inhibitor, single point].
With `O=C1C=C(N(CCO)Cc2ccccc2)c2ccccc2C1=O` the Potency was inconclusive [inhibitor, partial curve, poor fit].
For `Nc1c(C(=O)NC2CC2)sc2nc3c(c(-c4ccco4)c12)CC/C3=C/c1ccco1`, the Potency was inconclusive [inhibitor, partial curve].
`COc1ccc(Br)cc1/C=C/C(=O)NC(=S)Nc1ccc(Cl)c(C(=O)O)c1` was tested, and the Potency was inconclusive [inhibitor, single point].
In the case of `O=C(Cn1cncn1)NCc1cccc2ccccc12`, the Potency is reported as “inactive”.
With `Fc1ccccc1/C=C/c1ccc2ccccc2n1` the Potency was inconclusive [inhibitor, partial curve, poor fit].
`CS(=O)(=O)c1ccc2nc(NC(=O)c3ccc(NS(=O)(=O)c4ccc(F)c(F)c4)cc3)sc2c1` was tested, and the Potency was “inactive”.
For `CCc1ccc(S(=O)(=O)/N=C2\C=C(Nc3ccc(O)cc3)C(=O)c3ccccc32)cc1`, the Potency was inconclusive [inhibitor, partial curve, poor fit].
With `Fc1ccccc1Nc1nc2ccccc2o1` the Potency was inconclusive [inhibitor, partial curve, poor fit].
With `Cc1cccc2c(N=NC(=O)c3ccc(NS(=O)(=O)c4cccs4)cc3)c(O)[nH]c12` the Potency was inconclusive [inhibitor, partial curve, poor fit].
In the case of `O=C(NCc1ccco1)c1cc2ccc(O)cc2oc1=O`, the Potency is reported as inconclusive [inhibitor, partial curve, poor fit].
For `Cc1ccsc1C(=O)N/N=C/c1ccc2c(c1)OCO2`, the Potency was inconclusive [inhibitor, partial curve, poor fit].
With `CC(C)(C)[C@@H]1CCC(=O)N(CC[C@H](Sc2ccc(Br)cc2)c2ccccc2)CC1` the Potency was “inactive”.
In the case of `NC(=S)N/N=C/c1ccc(-c2ccc(Cl)c(Cl)c2)o1`, the Potency is reported as “inactive”.
For `COc1cc([N+](=O)[O-])ccc1N/C=C/C(=O)c1cccs1`, the Potency was inconclusive [inhibitor, partial curve, poor fit].
